Out of some 350,000 compounds screened, about 9,900 (2.8%) were called active. The shares of active, inactive and inconclusive entries below differ from those in the screen. The call rests on the fitted dose curve; in most records, active means well fitted activation curve with a large enough effect; inconclusive means small, poorly fitted or top-dose-only effect; inactive means no such curve, though single readings can be large or run the other way. Potencies of inconclusive entries are left out as doubtful fits.
Assay: A quantitative high throughput screen for small molecules that induce DNA re-replication in MCF 10a normal breast cells. Further: nearly all actives have a fitted effect of over 50% in size.
Details: MCF 10A DNA re-replication, Hoechst nuclear intensity, 48 h; series mostly up to 46.1 µM
Potency means the concentration at half of the fitted maximal effect; tags describe the fitted curve by direction and shape.

| Structure (SMILES) | Potency |
| --- | --- |
| COc1cc([N+](=O)[O-])c(OC)cc1SCc1n[nH]c(=S)n1-c1ccc(F)cc1 | inconclusive [activator, single point] |
| NNC(=O)c1oc2nc(-c3ccc(Cl)cc3)cc(-c3ccccc3)c2c1N | active: 8.2 µM |
| O=C(O)c1cccc(N/N=C(\N=Nc2ccccc2)c2ccccc2)c1 | inconclusive [activator, full curve, poor fit] |
| CCOC(=O)/C=C1\NC(C)(C)Cc2cc(OC)c(O)cc21 | inconclusive [activator, single point] |
| CCCN(CCC)CCCNC(=O)c1cc2c(-c3ccc(OC)c(OC)c3)nn(C)c2s1 | active: 18.4 µM |
| O=C(Nc1ccc(F)c(Cl)c1)C1CCCCC1 | inactive |
| O=C(CSc1ncnc2c1sc1ccccc12)Nc1ccc(Br)cc1 | inconclusive [activator, full curve] |
| Cn1c(=O)c2ncn(CC(=O)Nc3ccc(N4CCOCC4)cc3)c2n(C)c1=O | inactive |
| CCc1cccc(C)c1NC(=O)CCOc1ccccc1 | inactive |
| C/C(=N\NC(=O)c1cc(-c2cccc([N+](=O)[O-])c2)n[nH]1)c1ccccc1O | inactive |
| Cc1cccc(Nc2nnc(SCC(=O)NC3CCCc4ccccc43)s2)c1C (configuration not stated) | inconclusive [activator, partial curve, poor fit] |
| Cc1ccc([N+](=O)[O-])c(OCCN2CCC(Cc3ccccc3)CC2)c1 | inconclusive [activator, single point] |
| CC1Cc2ccccc2N1C(=O)c1ccc(N2CCCC2)c([N+](=O)[O-])c1 (configuration not stated) | inconclusive [activator, partial curve] |
| Cc1ccc(C(=O)OC(C)C(=O)NCc2ccc3c(c2)OCO3)cc1S(=O)(=O)N1CCOCC1 (configuration not stated) | inconclusive [activator, single point] |
| COC(=O)c1cc(=O)n(-c2ccccc2)c(=Nc2ccccc2)s1 | active: 18.4 µM |
| COc1ccccc1NC(=O)CN1CCN(c2ccc(Cl)cc2)CC1 | inactive |
| CCCOc1ccc(S(=O)(=O)N2CCN(C)CC2)c2ccccc12 | inconclusive [activator, single point] |
| COc1ccccc1/C=C/CN1CCC(CO)(Cc2ccccc2)CC1 | inconclusive [activator, single point] |
| Cc1ccc(C)c(NC(=S)NCc2ccc3[nH]c4c(c3c2)CCCC4)c1 | inconclusive [activator, full curve, poor fit] |
| C=CCc1cccc(/C=N/NC(=O)C(=O)Nc2ccc(C)cc2)c1O | inactive |
| CCn1cc(CN2CCCC(C(=O)Nc3cccc(-c4cc5ccccc5[nH]4)c3)C2)cn1 (configuration not stated) | inconclusive [activator, single point] |
| O=C(CN1C(=O)/C(=C\c2ccco2)SC1=S)Nc1ccc(O)cc1C(=O)O | inactive |
| Clc1ccc(OCc2nn3c(-c4ccncc4)nnc3s2)cc1 | inactive |
| COc1ccc(CN(C)C(=O)CNC(=O)Cc2cccc3ccccc23)c(OC)c1OC | inactive |

| Structure (SMILES) | Potency |
| --- | --- |
| CC(=O)Nc1cc2ccc(OC(C)=O)cc2oc1=O | inconclusive [activator, single point] |
| COC(=O)/C(C#N)=C/c1c(N2CCN(c3cccc(Cl)c3)CC2)nc2c(C)cccn2c1=O | inactive |
| N#Cc1c(-c2ccc(Cl)cc2)c(-c2ccc(Cl)cc2)nn(CCOC(=O)CCC(=O)O)c1=O | active: 1.84 µM |
| Cc1cc(Oc2ccccc2)nc(SCC(=O)Nc2ccc(Cl)c(Cl)c2)n1 | inconclusive [activator, single point] |
| CCOc1ccc(C(=O)NCC(=O)N2CCN(Cc3ccccc3)CC2)cc1 | inconclusive [activator, partial curve, poor fit] |
| Nn1cnnc1N/N=C/c1cc(Br)cc(Br)c1O | inconclusive [activator, partial curve, poor fit] |
| CC1(C)CC(=O)C2=C(C1)OC1=C(C(=O)CC(C)(C)C1)C2c1cc([N+](=O)[O-])cc([N+](=O)[O-])c1O | inconclusive [activator, partial curve, poor fit] |
| O=C(Nc1ccccc1Cl)c1ccc(Cl)cc1Cl | inactive |
| O=C(OCc1nc2ccc(Cl)cc2n1CCO)c1ccccc1 | inactive |
| CN(CC(=O)NC(=O)NCc1ccccc1)CC(=O)Nc1ccc(Cl)c(C(F)(F)F)c1 | inconclusive [activator, partial curve, poor fit] |
| COc1cc(OC)cc(-c2c(C#Cc3ccsc3)c3cc(-c4cccc5[nH]cc(C=O)c45)ccc3n2C)c1 | inactive |
| O=C1CCCC2=C1C(c1ccccc1)C1C(=O)c3ccccc3C1=N2 (configuration not stated) | inactive |
| CCc1ccc2c(c1)C(=O)C(=O)N2CC(=O)Nc1ccc(NC(=O)c2ccccn2)cc1 | inconclusive [activator, single point] |
| Cc1ccc(C(=O)Nc2nnc(C)s2)o1 | inactive |
| O=C(NC(=S)Nc1ccc(N2CCOCC2)cc1)c1cncc(Br)c1 | inactive |
| CC(=O)c1c(C)[nH]c(C(=O)Nc2cc(C)cc(C)c2)c1C | inconclusive [activator, partial curve, poor fit] |
| O=C(NCCCCNCCCNC(=O)c1ccccc1)c1ccccc1 | inactive |
| CCc1ccc(/C=C2\SC(=S)N(CCC(=O)NCCCN3CCOCC3)C2=O)cc1 | inconclusive [activator, single point] |
| O=C(CSc1nc2ccc(Cl)cc2[nH]1)c1ccc2c(c1)OCO2 | inactive |
| Nc1cccc(C(=O)OCC(=O)NC2CCCc3ccccc32)c1 (configuration not stated) | inconclusive [activator, single point] |
| Cc1ccc2nc(NC(=O)CSc3nc4c(c(=O)n3C)SC(C)C4)sc2c1 (configuration not stated) | inactive |
| CCCN1CCC(=O)N([C@H](CO)CC(C)C)CC1 | inconclusive [activator, partial curve, poor fit] |
| CCOC(=O)C(=CNc1cc(C)nn1-c1ccc(C)cc1)C(=O)OCC | inconclusive [activator, partial curve, poor fit] |
| CCN(CC)CCNC(=O)C(=O)Nc1ccc2c(c1)N(S(=O)(=O)c1cccs1)CCC2 | inconclusive [activator, single point] |

| Structure (SMILES) | Potency |
| --- | --- |
| O=C(O)CCc1ccc(S(=O)(=O)Nc2cc(C(F)(F)F)ccc2N2CCCC2)cc1 | inactive |
| c1ccc(COc2ccc(OCCCNC3CCCC3)cc2)cc1 | inconclusive [activator, partial curve, poor fit] |
| CSc1cccc(N2C(=O)C3CCCN3C2=S)c1 (configuration not stated) | inactive |
| O=C(NNC(=S)NC(=O)c1ccccc1Cl)c1cccc([N+](=O)[O-])c1 | inconclusive [activator, partial curve, poor fit] |
| COCC1CCCN(Cc2cn(-c3ccccc3F)nc2-c2cc(C)sc2C)C1 (configuration not stated) | inactive |
| O=C(COC(=O)c1ccc2c(c1)OCO2)NC1CCCCC1 | inconclusive [activator, single point] |
| CCc1ccccc1NNC(=O)c1cc(C)on1 | inconclusive [activator, partial curve, poor fit] |
| Cc1cc(C)c(S(=O)(=O)Nc2ccc3c4c(cccc24)CC3)c(C)c1 | active: 0.366 µM |
| COc1ccc2oc(C(=O)OCC(=O)NC(C)c3ccccc3)c(C)c2c1 (configuration not stated) | inconclusive [activator, single point] |
| Cc1c(C)n(Cc2ccc(Cl)cc2)c2ccc(C(=O)NCCN3CCOCC3)cc12 | active: 11.6 µM |
| Cc1ccc(S(=O)(=O)NCc2ccccc2)cc1C(=O)NC1CCCCC1 | inconclusive [activator, single point] |
| CC1CC(C)CN(S(=O)(=O)c2ccc(NC(=O)c3ccc(=O)[nH]c3)cc2)C1 (configuration not stated) | active: 5.8 µM |
| C/C=C1/NN(CCCN2CCN(c3cccc(Cl)c3)CC2)C(=O)N1CCOc1ccccc1 | inconclusive [activator, full curve, poor fit] |
| O=[N+]([O-])c1cccc(/C=C/c2nc3ccc([N+](=O)[O-])cc3[nH]2)c1 | inconclusive [activator, single point] |
| CCOC(=O)c1ccc(N=Nc2c(C)c(C#N)c(O)[nH]c2=O)cc1 | inactive |
| Nc1c(N(Cc2ccco2)C(=O)c2ccc(Br)cc2)c(=O)[nH]c(=O)n1Cc1ccccc1 | inconclusive [activator, single point] |
| CC(C)N(C(=O)NC(=O)Nc1ccccn1)S(C)(=O)=O | inactive |
| Cc1cccc(C(=O)Nc2nnc(C3=COCCO3)o2)c1 | inactive |
| C=CCOc1ccc(/C=C2\SC(=S)N(NS(=O)(=O)c3ccccc3)C2=O)cc1 | inconclusive [activator, single point] |
| CC(C)(C)C1CCc2nc(NC(=O)Cc3cn4ccsc4n3)sc2C1 (configuration not stated) | inconclusive [activator, single point] |
| Cc1ccc(C(=O)O)cc1NS(=O)(=O)c1ccc2ccccc2c1 | inconclusive [activator, single point] |
| Cn1ccnc1SCC(=O)N(C1CCCCC1)C1CCCCC1 | inconclusive [activator, partial curve, poor fit] |
| O=S(=O)(SC1=NCCN1)c1ccccc1 | inactive |
| N=c1n(Cc2ccccc2)c2ccccc2n1CC(O)COc1ccc(Cl)cc1Cl (configuration not stated) | inconclusive [activator, single point] |

From PubChem BioAssay AID624296 (National Center for Advancing Translational Sciences (NCATS), 2012)
